# Laboratory results taken from PubChem BioAssay AID1347428 (National Center for Advancing Translational Sciences (NCATS), 2020).
# Hit rate of the full screen: of about 91,000 compounds, about 290 (0.32%) were called active. Inconclusive means that the source gave no clear call. Such entries were picked first, then a sample of the others. Calls come from the whole dose curve; as a rule, active = well fitted inhibition curve with a large enough effect; inconclusive = small, poorly fitted or top-dose-only effect; inactive = no such curve, though single readings can be large or run the other way. Potencies beside an inconclusive call are fits to weak or partial responses and may not hold up.
# Target: Single-stranded DNA cytosine deaminase (Homo sapiens) (UniProt Q9GZX7)
# Assay: Primary qHTS assay for inhibitors of Activation Induced Cytidine Deaminase (AID): AID signal; note: nearly all actives have a fitted effect of over 25% in size
# Conditions: AID deamination FRET fluorescence, UDG-coupled, 4 h; activity change, negative = inhibition: at 115 µM (top of the series)
# % is set by controls: 0 for no effect and ±100 for the full control effect; potency is the fitted concentration of half-maximal effect; tags give direction and shape of the fitted curve.
# UniProt Q9GZX7, sequence (Q9GZX7 whole entry, looked up): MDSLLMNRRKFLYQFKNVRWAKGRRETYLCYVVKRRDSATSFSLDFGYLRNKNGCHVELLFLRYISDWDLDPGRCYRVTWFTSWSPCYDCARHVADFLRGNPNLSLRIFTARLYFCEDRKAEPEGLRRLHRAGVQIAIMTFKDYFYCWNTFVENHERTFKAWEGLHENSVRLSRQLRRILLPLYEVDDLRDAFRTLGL
Structure (SMILES),Potency,"activity change, negative = inhibition"
CCOc1ccc(-c2cc3c(=O)n(Cc4nc(-c5ccccc5OCC)oc4C)ccn3n2)cc1Cl,"inconclusive: 3.16 µM [inhibitor, full curve, poor fit]",–
O=S(=O)(NCc1ccc(Cl)cc1)c1ccc2[nH]c3c(c2c1)CCCC3,–,inactive: 79.5%
CCOC(=O)c1ccc2nc(C)cc(Nc3ccc(OC(C)C)cc3)c2c1,"inconclusive: 39.8 µM [inhibitor, full curve, poor fit]",–
Cc1ccc(N)c(O)c1,–,inactive: 26.6%
Cc1ccc(-n2cnc3cc(C(=O)NCc4ccc(F)cc4)ccc32)c(C)c1,"inconclusive: 89.1 µM [inhibitor, single point]",–
C#CCNC(=O)CN1CCCC1C(=O)NCC(F)(F)F (stereo not given),–,inactive: -1.64%
CCSc1ncc(Cl)c(C(=O)N(Cc2ccccc2)c2ccc(OC)cc2)n1,"inconclusive: 31.6 µM [inhibitor, partial curve, poor fit]",–
CCOc1ccc(N(CC)S(=O)(=O)N2CCCC(C(=O)NCc3ccc(SC)cc3)C2)cc1 (stereo not given),"inconclusive: 56.2 µM [inhibitor, partial curve]",–
Cc1ccc(C)c(CN2C(=O)c3ccccc3S(=O)c3ccc(C(=O)NCCc4ccc(Cl)cc4)cc32)c1 (stereo not given),"inconclusive: 22.4 µM [inhibitor, partial curve, poor fit]",–
CCCN1CCN(c2nnc(-n3cccc3CN3CCN(c4ccccc4)CC3)s2)CC1,–,inactive: -10.3%
CC(=O)NCc1ccc(-c2csc(Nc3cccc(C)c3)n2)o1,–,inactive: 4.47%
CCN1CCN(c2cc(C)c3cc(NC(=O)/C=C/c4cccc(Cl)c4)ccc3n2)CC1,"inconclusive: 44.7 µM [inhibitor, full curve, poor fit]",–
COc1cccc(C2CC(=O)N3CN(C4CCCCC4)CSC3=C2C#N)c1 (stereo not given),"inconclusive: 89.1 µM [inhibitor, partial curve, poor fit]",–
COc1ccccc1-n1c(SCC(=O)Nc2ccc(C)cc2)nc(O)cc1=O,"inconclusive: 89.1 µM [inhibitor, single point]",–
CCOCCCNC(=O)Cn1ccc2cc(S(=O)(=O)N3CCCCC3)ccc21,–,inactive: -15.7%
COc1ccc(CCNC(=O)c2nn(C)c3c2CSc2ccccc2-3)cc1OC,"inconclusive: 39.8 µM [inhibitor, partial curve]",–
COc1cc2nc(NCC(C)c3ccccc3)n3nc(-c4ccccc4)nc3c2cc1OC (stereo not given),"inconclusive: 14.1 µM [inhibitor, full curve, poor fit]",–
CNC(=O)c1ccc(Nc2nnc(-c3ccc(C)c(S(=O)(=O)N4CCOCC4)c3)c3ccccc23)cc1,"inconclusive: 39.8 µM [inhibitor, single point]",–
CCOC(=O)CCn1nc(C)c2c(C)n(-c3ccccc3)nc2c1=O,"inconclusive: 22.4 µM [inhibitor, partial curve, poor fit]",–
CCOC(=O)C1CCCN(C(=O)Cn2c(=O)cc(C)c3c(C)nn(C)c32)C1 (stereo not given),–,inactive: 4.24%
CCCCC(=O)OCc1c(C(=O)OCC)sc(N)c1C#N,–,inactive: 12.3%
CCc1c(C)sc(NC(=O)c2ccc(F)cc2)c1C#N,–,inactive: 3.62%

Structure (SMILES),Potency,"activity change, negative = inhibition"
CC(C)(C)c1ccc(C(=O)NNc2ncnc3c2cnn3-c2ccc(Cl)cc2)cc1,"inconclusive: 14.1 µM [inhibitor, full curve, poor fit]",–
O=C(O)Cc1ccc(N2C(=O)C(=O)/C(=C(/O)c3ccccc3Cl)C2c2ccccc2F)cc1 (stereo not given),–,inactive: -6.11%
COc1cccc(-n2c(SCC(=O)Nc3cccc(C)c3)nc3c([nH]c4ccccc43)c2=O)c1,active: 12.6 µM,–
Cc1ccccc1C(=O)Nc1sc2c(c1C(=O)O)CCC(C(C)(C)C)C2 (stereo not given),"inconclusive: 56.2 µM [inhibitor, partial curve, poor fit]",–
Cc1ccc(C2C(=O)N(C3CCCCCC3)CC(=O)N2C(C)C)cc1 (stereo not given),"inconclusive: 11.2 µM [inhibitor, partial curve, poor fit]",–
CCc1ccc(NC(=O)CSc2nc(C)c(C(=O)Nc3ccc(Cl)cc3)c(-c3ccc(OC)cc3)c2C#N)cc1,"inconclusive: 20 µM [inhibitor, partial curve, poor fit]",–
Cc1ccc(C)c(NC(=O)CCCn2c(C)c3cnn(-c4ccccc4)c(=O)c3c2C)c1,"inconclusive: 79.4 µM [inhibitor, partial curve, poor fit]",–
N#Cc1c(SCCN2CCOCC2)nc(N2CCCCC2)c2c1CCCC2,–,inactive: -21%
CCN(CC)S(=O)(=O)c1cccc(NS(=O)(=O)c2ccc(C)cc2)c1,–,inactive: 4.46%
Cc1ccc(CNC(=O)c2cc(-c3ccncc3)nc3ccccc23)cc1,–,inactive: -3.58%
CCCNc1c(NC(=O)Nc2ccccc2OCC)c(=O)oc2ccccc12,–,inactive: -4.91%
CCC1CCCCN1CCCNC(=O)c1cn(CC)c2ccc(S(=O)(=O)N(C)C3CCCCC3)cc2c1=O (stereo not given),"inconclusive: 79.4 µM [inhibitor, partial curve, poor fit]",–
COc1ccccc1C(=O)Nc1c(C(=O)N2CCN(c3ccccc3F)CC2)oc2ccccc12,"inconclusive: 89.1 µM [inhibitor, single point]",–
Cc1ccc(C)c(N2CCN(C(=O)C3CCN(C(=O)c4cc5sccc5n4C)CC3)CC2)c1,"inconclusive: 44.7 µM [inhibitor, partial curve, poor fit]",–
CS(=O)(=O)CCC(NS(=O)(=O)/C=C/c1ccccc1)C(=O)O (stereo not given),–,inactive: 5.01%
CCOc1ccc(NC(=O)CSC2=Nc3ccccc3C3=NC(CC(=O)NCc4ccccc4OC)C(=O)N23)cc1 (stereo not given),"inconclusive: 39.8 µM [inhibitor, partial curve, poor fit]",–
O=C(c1ccc2c(c1)N(Cc1ccc(F)cc1)C(=O)c1ccccc1S2(=O)=O)N1CCCCCC1,"inconclusive: 35.5 µM [inhibitor, full curve]",–
Cc1ccc(-c2cc(C(=O)NCC(C)C)c3ccccc3n2)o1,–,inactive: 16.6%
Fc1ccc(Nc2nc(SCc3cccc(F)c3)nc3ccccc23)cc1,"inconclusive: 39.8 µM [inhibitor, full curve]",–
c1cncc(-c2nc(Sc3ccc4c(c3)OCCCO4)c3ccccc3n2)c1,–,inactive: -4.5%
COc1ccc(C2c3c(n(C)c4ccccc34)C(=O)N2CC(=O)Nc2c(C)cc(C)cc2C)cc1 (stereo not given),"inconclusive: 79.4 µM [inhibitor, partial curve, poor fit]",–
Cc1ccc(-c2onc(C)c2C)cc1S(=O)(=O)N1CCC(C)CC1,"inconclusive: 10 µM [inhibitor, full curve, poor fit]",–

Structure (SMILES),Potency,"activity change, negative = inhibition"
CCc1ccc(-c2nc3c(c(SCc4ccccc4)n2)Cc2c(CO)cnc(C)c2O3)cc1,–,inactive: -16.2%
CC(C)Oc1ccc(CNC(=O)c2cc3cccc4c3n2CC(C)S4)cc1 (stereo not given),"inconclusive: 25.1 µM [inhibitor, partial curve]",–
CCOc1ccc(Nc2sc(C(=O)c3ccc(F)cc3)c(N)c2S(=O)(=O)c2ccc(C)cc2)cc1,"inconclusive: 79.4 µM [inhibitor, partial curve, poor fit]",–
CCOc1ccc(OCCOCCn2c(-c3ccc(Cl)cc3)nc3ccccc3c2=O)cc1,"inconclusive: 2.82 µM [inhibitor, full curve, poor fit]",–
NC(=O)NNC(=S)Nc1ccc(SC(F)F)cc1,–,inactive: -2.65%
Fc1ccc(N/N=C/c2cccc(Cl)c2)c(F)c1,–,inactive: -6.92%
CCc1ccc(CN(Cc2ccco2)C(=O)COc2ccccc2Cl)cc1,"inconclusive: 39.8 µM [inhibitor, partial curve, poor fit]",–
COC(=O)c1cc2oc(C)cc2n1Cc1cc(C)ccc1C,"inconclusive: 50.1 µM [inhibitor, partial curve, poor fit]",–
Cc1cccc(NC(=O)CC2Nc3cccc4cccc(c34)NC2=O)c1 (stereo not given),"inconclusive: 44.7 µM [inhibitor, partial curve, poor fit]",–
Cc1ccc(N(C)C(=O)CC(C)S(=O)(=O)c2ccc3c(c2)NC(=O)CO3)cc1 (stereo not given),"inconclusive: 89.1 µM [inhibitor, single point]",–
Cc1ccc2c(CC(=O)Nc3cccc(C(F)(F)F)c3)coc2c1,"inconclusive: 28.2 µM [inhibitor, full curve, poor fit]",–
Cc1nnc(N2CCCC(C(=O)NCc3ccccc3)C2)c2nn(-c3ccccc3)c(C)c12 (stereo not given),"inconclusive: 100 µM [inhibitor, single point]",–
Cc1nc2nc(SCC(=O)N(C)Cc3ccccc3)nn2c(C)c1Cc1ccccc1Cl,active: 44.7 µM,–
Cc1ccc2c(c1)N(C(=O)N1CCC(C(=O)NCc3cccc(Br)c3)CC1)CCO2,"inconclusive: 31.6 µM [inhibitor, full curve]",–
C/C(=N/Nc1ccccc1)c1ccc(Cl)s1,–,inactive: -1.3%
Cc1ccc2nc(N(CCCN(C)C)C(=O)c3ccco3)sc2c1,"inconclusive: 79.4 µM [inhibitor, single point]",–
Oc1ccc(N=Cc2cccc(OCc3ccccc3)c2)cc1,"inconclusive: 10 µM [inhibitor, full curve, poor fit]",–
COC(=O)/C=C(/SCc1ccccc1)c1ccccc1,–,inactive: -4.77%
Cc1ccc(C)c(N2C(=O)N(Cc3ccccc3C)c3ccccc3S2(=O)=O)c1,"inconclusive: 3.55 µM [inhibitor, partial curve, poor fit]",–
CCOc1ccc(NC(=O)c2ccc3c(O)c(S(=O)(=O)c4ccc(Cl)cc4)c(=O)[nH]c3c2)cc1,"inconclusive: 50.1 µM [inhibitor, partial curve, poor fit]",–
CCCCOc1ccc(C(=O)NCC(c2ccc(Cl)cc2)N2CCOCC2)cc1 (stereo not given),"inconclusive: 56.2 µM [inhibitor, partial curve, poor fit]",–
